The record followed here is the supplement of paper PMC10369915.

The list shows a part of the results. Rule as the data show it: active = 3.2 or more and inactive = the rest. Most of these values are background signal.
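Also: displayed peptides selected on beads carrying the immobilized SH2 domain, with library peptides lacking any tyrosine serving as negative controls.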

One assay concerns the target SHP2 C-SH2 domain E139D. Nature of the assay: enrichment score (SH2-bound / input frequency) (ratio); bacterial display of known human phosphotyrosine sites (pTyr-Var adds point mutants) read by sequencing; higher = stronger binding; tyrosines were phosphorylated by kinases first. Particulars: peptide library: pTyr-Var.
Consider PVQAASQKVVA [HBB_Y131_Y131S], for which the enrichment score is inactive: 0.619.
Same read-out and setting: then EEEPVYEAEPE [HCLS1_Y360], with inactive: 0.418; and DHAGEYGAEAL [HBA1_Y25_A20D], with inactive: 0.403.
For the molecule AAGGRYDGLVG [HARS1_Y363], the enrichment score is inactive: 0.6.
On the same count and under the same terms, to PTTKSYFPHFD [HBA1_Y43_T42S] belongs inactive: 1.06; to VLAHKYHGGGG [HBB_Y146_A141V], inactive: 0.589.
On the same count and under the same terms, then PVQAAYKKVVA [HBB_Y131_Q132K], with inactive: 0.515.
Still for that read-out and setting: then ALAHKCHGGGG [HBB_Y146_Y146C], with inactive: 1.41; and GNLLIYTELGK [HGD_Y166_F169L], with inactive: 1.36; and AAGGRYFGLVG [HARS1_Y363_D364Y_YF], with inactive: 0.96.
GNLLIYTDFGK [HGD_Y166_E168D]: the enrichment score was inactive: 1.12.
With AHAGEYGADAL [HBA1_Y25_E28D], the enrichment score was inactive: 0.515.
On the same count and under the same terms, to AHAGEYGVEAL [HBA1_Y25_A27V] belongs inactive: 0.533; to RLLVVYPRTQR [HBB_Y36_W38R], inactive: 0.154.
The same measure, in the same setting: to TFRPPYFHRNC [HGD_Y333_YF] belongs inactive: 2.04.
On the same count and under the same terms, then VPFARYLAMNK [HARS1_Y138], with inactive: 0.596.
Turning to GNLLIYTEFGN [HGD_Y166_K171N], the enrichment score is inactive: 1.14.
Same read-out and setting: then PVQDAYQKVVA [HBB_Y131_A129D], with inactive: 0.653.

The next assay has as its target SHP2 C-SH2 domain wild-type. Described as above. Conditions: peptide library: pTyr-Var.
Regarding PVQAASQKVVA [HBB_Y131_Y131S], the enrichment score is inactive: 0.753.
On to EEEPVYEAEPE [HCLS1_Y360], for which the enrichment score was inactive: 0.748.
On the same count and under the same terms, to DHAGEYGAEAL [HBA1_Y25_A20D] belongs inactive: 0.531; to AAGGRYDGLVG [HARS1_Y363], inactive: 1.21; to PTTKSYFPHFD [HBA1_Y43_T42S], inactive: 0.839.
On the same count and under the same terms, to VLAHKYHGGGG [HBB_Y146_A141V] belongs inactive: 0.645; to PVQAAYKKVVA [HBB_Y131_Q132K], inactive: 0.496.
The same measure, in the same setting: to ALAHKCHGGGG [HBB_Y146_Y146C] belongs inactive: 1.31; to GNLLIYTELGK [HGD_Y166_F169L], inactive: 1.05; to AAGGRYFGLVG [HARS1_Y363_D364Y_YF], inactive: 1.01.
For GNLLIYTDFGK [HGD_Y166_E168D], the enrichment score is inactive: 1.25.
For the molecule AHAGEYGADAL [HBA1_Y25_E28D], the enrichment score was inactive: 0.439.
Consider AHAGEYGVEAL [HBA1_Y25_A27V], for which the enrichment score is inactive: 0.558.
Still for that read-out and setting: then RLLVVYPRTQR [HBB_Y36_W38R], with inactive: 0.155.
The same measure, in the same setting: to TFRPPYFHRNC [HGD_Y333_YF] belongs inactive: 1.73.
On to VPFARYLAMNK [HARS1_Y138], for which the enrichment score is inactive: 0.668.
Still for that read-out and setting: to GNLLIYTEFGN [HGD_Y166_K171N] belongs inactive: 1.29; to PVQDAYQKVVA [HBB_Y131_A129D], inactive: 0.641.

The target in a further assay is SHP2 N-SH2 domain L43F. The description is as above. Particulars: peptide library: pTyr-Var.
In the case of PVQAASQKVVA [HBB_Y131_Y131S], the enrichment score was inactive: 0.785.
On the same count and under the same terms, then EEEPVYEAEPE [HCLS1_Y360], with inactive: 0.509; and DHAGEYGAEAL [HBA1_Y25_A20D], with inactive: 0.516.
Still for that read-out and setting: then AAGGRYDGLVG [HARS1_Y363], with inactive: 0.734.
Still for that read-out and setting: to PTTKSYFPHFD [HBA1_Y43_T42S] belongs inactive: 0.949; to VLAHKYHGGGG [HBB_Y146_A141V], inactive: 0.567; to PVQAAYKKVVA [HBB_Y131_Q132K], inactive: 0.482.
Take ALAHKCHGGGG [HBB_Y146_Y146C]: the enrichment score was inactive: 1.31.
GNLLIYTELGK [HGD_Y166_F169L]: the enrichment score is inactive: 0.945.
The same measure, in the same setting: to AAGGRYFGLVG [HARS1_Y363_D364Y_YF] belongs inactive: 0.958.
The same measure, in the same setting: to GNLLIYTDFGK [HGD_Y166_E168D] belongs inactive: 1.05.
Same read-out and setting: then AHAGEYGADAL [HBA1_Y25_E28D], with inactive: 0.476; and AHAGEYGVEAL [HBA1_Y25_A27V], with inactive: 0.536; and RLLVVYPRTQR [HBB_Y36_W38R], with inactive: 0.27.
As for TFRPPYFHRNC [HGD_Y333_YF], the enrichment score is inactive: 2.2.
Same read-out and setting: to VPFARYLAMNK [HARS1_Y138] belongs inactive: 0.753; to GNLLIYTEFGN [HGD_Y166_K171N], inactive: 1.11.
On the same count and under the same terms, then PVQDAYQKVVA [HBB_Y131_A129D], with inactive: 0.574.

Another assay addresses SHP2 N-SH2 domain T42A. Described as above. Particulars: peptide library: pTyr-Var.
Take PVQAASQKVVA [HBB_Y131_Y131S]: the enrichment score is inactive: 0.614.
The same measure, in the same setting: then EEEPVYEAEPE [HCLS1_Y360], with inactive: 0.503; and DHAGEYGAEAL [HBA1_Y25_A20D], with inactive: 0.453.
On the same count and under the same terms, then AAGGRYDGLVG [HARS1_Y363], with inactive: 0.69; and PTTKSYFPHFD [HBA1_Y43_T42S], with inactive: 1.01; and VLAHKYHGGGG [HBB_Y146_A141V], with inactive: 0.592.
On the same count and under the same terms, then PVQAAYKKVVA [HBB_Y131_Q132K], with inactive: 0.464; and ALAHKCHGGGG [HBB_Y146_Y146C], with inactive: 0.977.
Consider GNLLIYTELGK [HGD_Y166_F169L], for which the enrichment score is inactive: 0.98.
For the molecule AAGGRYFGLVG [HARS1_Y363_D364Y_YF], the enrichment score was inactive: 0.776.
Take GNLLIYTDFGK [HGD_Y166_E168D]: the enrichment score was inactive: 0.979.
Same read-out and setting: to AHAGEYGADAL [HBA1_Y25_E28D] belongs inactive: 0.426.
Same read-out and setting: to AHAGEYGVEAL [HBA1_Y25_A27V] belongs inactive: 0.548; to RLLVVYPRTQR [HBB_Y36_W38R], inactive: 0.31.
The same measure, in the same setting: then TFRPPYFHRNC [HGD_Y333_YF], with inactive: 1.68; and VPFARYLAMNK [HARS1_Y138], with inactive: 0.641; and GNLLIYTEFGN [HGD_Y166_K171N], with inactive: 0.979.
On to PVQDAYQKVVA [HBB_Y131_A129D], for which the enrichment score was inactive: 0.842.

The next assay addresses SHP2 N-SH2 domain T52S. Described as above. Conditions: peptide library: pTyr-Var.
As to PVQAASQKVVA [HBB_Y131_Y131S], the enrichment score is inactive: 0.922.
Still for that read-out and setting: to EEEPVYEAEPE [HCLS1_Y360] belongs inactive: 0.413; to DHAGEYGAEAL [HBA1_Y25_A20D], inactive: 0.379.
Same read-out and setting: then AAGGRYDGLVG [HARS1_Y363], with inactive: 0.7.
Same read-out and setting: to PTTKSYFPHFD [HBA1_Y43_T42S] belongs inactive: 1.1; to VLAHKYHGGGG [HBB_Y146_A141V], inactive: 0.594; to PVQAAYKKVVA [HBB_Y131_Q132K], inactive: 0.715.
As for ALAHKCHGGGG [HBB_Y146_Y146C], the enrichment score is inactive: 1.2.
Still for that read-out and setting: then GNLLIYTELGK [HGD_Y166_F169L], with inactive: 0.957; and AAGGRYFGLVG [HARS1_Y363_D364Y_YF], with inactive: 0.918.
For the molecule GNLLIYTDFGK [HGD_Y166_E168D], the enrichment score is inactive: 0.813.
In the case of AHAGEYGADAL [HBA1_Y25_E28D], the enrichment score is inactive: 0.416.
Turning to AHAGEYGVEAL [HBA1_Y25_A27V], the enrichment score is inactive: 0.627.
Same read-out and setting: then RLLVVYPRTQR [HBB_Y36_W38R], with inactive: 0.201; and TFRPPYFHRNC [HGD_Y333_YF], with inactive: 1.94.
The same measure, in the same setting: then VPFARYLAMNK [HARS1_Y138], with inactive: 0.71; and GNLLIYTEFGN [HGD_Y166_K171N], with inactive: 1.13.
On to PVQDAYQKVVA [HBB_Y131_A129D], for which the enrichment score is inactive: 0.583.

A further assay concerns the target SHP2 N-SH2 domain wild-type. The assay is described as above. Particulars: peptide library: pTyr-Var.
For PVQAASQKVVA [HBB_Y131_Y131S], the enrichment score was inactive: 0.698.
For EEEPVYEAEPE [HCLS1_Y360], the enrichment score was inactive: 0.819.
The same measure, in the same setting: then DHAGEYGAEAL [HBA1_Y25_A20D], with inactive: 0.734; and AAGGRYDGLVG [HARS1_Y363], with inactive: 0.726.
Still for that read-out and setting: then PTTKSYFPHFD [HBA1_Y43_T42S], with inactive: 0.863; and VLAHKYHGGGG [HBB_Y146_A141V], with inactive: 0.523.
Still for that read-out and setting: to PVQAAYKKVVA [HBB_Y131_Q132K] belongs inactive: 0.667.
Regarding ALAHKCHGGGG [HBB_Y146_Y146C], the enrichment score was inactive: 1.13.
Same read-out and setting: to GNLLIYTELGK [HGD_Y166_F169L] belongs inactive: 1.28; to AAGGRYFGLVG [HARS1_Y363_D364Y_YF], inactive: 0.931; to GNLLIYTDFGK [HGD_Y166_E168D], inactive: 1.47.
On the same count and under the same terms, then AHAGEYGADAL [HBA1_Y25_E28D], with inactive: 0.59; and AHAGEYGVEAL [HBA1_Y25_A27V], with inactive: 0.792.
The same measure, in the same setting: then RLLVVYPRTQR [HBB_Y36_W38R], with inactive: 0.192; and TFRPPYFHRNC [HGD_Y333_YF], with inactive: 1.3; and VPFARYLAMNK [HARS1_Y138], with inactive: 0.653.
As to GNLLIYTEFGN [HGD_Y166_K171N], the enrichment score was inactive: 1.25.
Same read-out and setting: to PVQDAYQKVVA [HBB_Y131_A129D] belongs inactive: 0.711.
